PubChem BioAssay AID1645887 (National Center for Advancing Translational Sciences (NCATS), 2021)
“And” between values parts separate entries of the source, which are not always exact repeats. Equal entries are not always repeated. The campaign covered roughly 16,000 compounds. About 40 (0.2%) were called active. Inconclusive results (about 1%) are left out. Calls follow the shape of the dose curve; as a rule, active = well fitted activation curve with a large enough effect; inconclusive = small, poorly fitted or top-dose-only effect, or another doubt; inactive = no such curve, though single readings can be large or run the other way. The list shows a part of the results.

Target: Rap guanine nucleotide exchange factor 4 (Homo sapiens) (UniProt Q8WZA2)
Experiment: Validation qHTS for agonist of cAMP-regulated guanine nucleotide exchange factor 4 (EPAC2);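 also: exchange makes BODIPY-GDP fluorescence drop when released from Rap1B; series mostly up to about 150 µM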
Conditions: EPAC2 Rap1B BODIPY-GDP exchange, fluorescence; activation: active compounds read high
Method in brief: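 Fluorescent exchange assay: 100 nM EPAC2 with 250 nM RAP1B-BODIPY-GDP and 50 uM GDP; compound added, 5 min at room temperature, then read (ex 480/em 540 nm) every 5 min for 30 min. Normalized to 6.5 mM cAMP agonist control.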
% is scaled to controls: 0 for no effect and ±100 for the full control effect.

Chain of UniProt Q8WZA2 (Q8WZA2 whole entry, looked up): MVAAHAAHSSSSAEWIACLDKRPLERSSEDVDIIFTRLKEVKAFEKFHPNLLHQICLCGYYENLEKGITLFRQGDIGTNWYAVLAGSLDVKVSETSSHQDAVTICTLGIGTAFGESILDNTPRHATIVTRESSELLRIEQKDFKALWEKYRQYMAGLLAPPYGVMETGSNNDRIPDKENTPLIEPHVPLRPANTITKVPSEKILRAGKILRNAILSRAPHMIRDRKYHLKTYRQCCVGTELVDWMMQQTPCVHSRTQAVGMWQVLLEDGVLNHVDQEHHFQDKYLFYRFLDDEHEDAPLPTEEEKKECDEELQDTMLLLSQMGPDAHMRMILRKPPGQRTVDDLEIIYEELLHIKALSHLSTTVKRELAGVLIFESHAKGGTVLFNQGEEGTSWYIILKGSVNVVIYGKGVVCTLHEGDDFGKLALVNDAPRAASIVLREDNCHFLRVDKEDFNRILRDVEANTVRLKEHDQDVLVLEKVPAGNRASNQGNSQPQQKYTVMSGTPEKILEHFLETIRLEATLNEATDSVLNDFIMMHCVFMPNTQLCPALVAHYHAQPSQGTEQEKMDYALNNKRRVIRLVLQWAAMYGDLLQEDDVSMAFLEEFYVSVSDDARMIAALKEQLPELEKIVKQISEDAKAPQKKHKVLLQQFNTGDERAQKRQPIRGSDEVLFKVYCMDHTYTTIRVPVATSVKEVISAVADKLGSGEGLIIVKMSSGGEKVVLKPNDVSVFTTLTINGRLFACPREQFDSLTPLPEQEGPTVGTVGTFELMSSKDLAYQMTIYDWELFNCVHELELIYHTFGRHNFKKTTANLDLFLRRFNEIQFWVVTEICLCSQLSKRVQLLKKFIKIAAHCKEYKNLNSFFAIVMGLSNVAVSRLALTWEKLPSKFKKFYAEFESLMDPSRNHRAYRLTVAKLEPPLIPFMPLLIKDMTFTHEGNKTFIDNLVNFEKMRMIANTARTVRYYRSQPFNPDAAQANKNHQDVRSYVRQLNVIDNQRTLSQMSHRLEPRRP

activation, inactive:
COc1cccc(C(=O)N(Cc2cc3ccc(C)cc3nc2N(C)C)C2CC2)c1OC -2.09%
O=C(c1cccc(F)c1)N1CCC2(CC1)CCN(C(c1ccccc1)c1ccccc1)CC2 6.52%
O=C(C[N+]12CCCc3cccc(c31)CCC2)c1ccc2ccc3cccc4ccc1c2c34 -23.2%
Cc1nc2cnc(OCc3ccccc3)nc2n(Cc2ccc(F)cc2)c1=O -5.75%
N#Cc1cccc(-c2nc3cnc(N4CCOCC4)nc3n(Cc3ccc(F)cc3)c2=O)c1 1.03%
COc1ccc(CNc2nc(-c3ccc(C(=O)N(C)C)cc3)nc3ccccc23)c(OC)c1 -10.5%
Cc1cc(=O)c(C(=O)N(C)CCc2ccccn2)c2n1-c1ccccc1SC(c1ccsc1)C2 (centres undefined) 3.09%
Cc1oc(-c2ccccc2NC(=O)C2CCCO2)nc1CNC(=O)c1cc(Cl)ccc1F (centres undefined) -4.56%
Nc1ccn([C@H]2CC[C@@H](CO)O2)c(=O)n1 -10.7% and -5.47% and -19.5%
COC(=O)c1c(OCc2cccnc2)cc(=O)n2c1CCN(Cc1cc3c(cc1Cl)OCO3)CC2 0.589%
N#Cc1ccc(CN2CCCC3(CCN(C(=O)c4ccncc4)CC3)C2)cc1 -14.6%
O=C1c2ccc(O)c(O)c2C(=O)c2c(O)ccc(O)c21 -0.857%
NC(=S)NS(=O)(=O)c1ccc(N)cc1 -3.42%
CN(C(=O)C(Cl)Cl)c1ccc(OC(=O)c2ccco2)cc1 -3.75%
NC[C@](O)(CS(=O)(=O)O)c1ccc(Cl)cc1 -1.67%
C[Si](C)(C)O[Si](C)(C)C 6.08%
COc1cc(-c2noc(C)c2C#Cc2ccccn2)cc(OC)c1OC -22.3%
Cn1cccc1C(=O)N1CCC2(CC1)CCN(c1cccc(-c3ccccc3)c1)CC2 0.0496%
COc1ncc2ncc(=O)n(Cc3ccc(F)cc3)c2n1 -11.7%
CCOc1cc(OCC)c(C(=O)CCC(=O)O)cc1OCC 9.24%
CCOC(=O)Nc1ccc2c(c1)N(C(=O)CN(C)C)c1ccccc1CC2 -3.7%
CN(Cc1ccco1)c1nc(-c2ccc3c(c2)OCO3)nc2ccccc12 5.19%
CCOc1ccc2nc(N3CCCC3C(=O)N3CCC(c4nc5ccccc5o4)CC3)nc(C)c2c1 (centres undefined) 2.5%
COc1ccccc1N1CCN(CCCCN2C(=O)c3ccccc3C2=O)CC1 -24% and 10.9% and -68.2%
Cc1cnc(CNc2cc(-c3ccc(C(=O)N(C)C)cc3)ncn2)cn1 -0.0716%
CC(=O)c1ccc(F)c(-c2cc(C)cc3c2OC(CNC(=O)Cc2ccc4c(c2)OCO4)C3)c1 (centres undefined) 1.14%
CC(C)c1c(C(=O)N(C)CC2CCCN(C)C2)cnn1-c1nccc(-c2cccs2)n1 (centres undefined) 2.97%
Nc1ncnc2[nH]c(=O)[nH]c12 -10.5%
Cc1cccc(C)c1OCC(C)N (centres undefined) -23.8% and -8.12% and -25.3%
CCN(Cc1ccncc1)Cc1ccc2c(c1)CN(C(=O)c1ccc(C#CC(C)(C)O)o1)CCO2 -8.5%
COC(=O)[C@@H]1C2CC3c4[nH]c5cc(OC)ccc5c4CCN3CC2C[C@H](OC(=O)c2cc(OC)c(OC)c(OC)c2)C1OC (some centres undefined) 20.8%
O=C(/C=C/c1ccc(O)cc1)c1cccs1 4.67%
CC(=O)Oc1c(C)cc(OCC(O)CNC(C)C)c(C)c1C (centres undefined) -3.35%
CCN(CC)CCCC(C)Nc1cc(/C=C/c2ccccc2Cl)nc2cc(Cl)ccc12 (centres undefined) 16.5%
CC(=O)N1CCC2(CC1)CN(Cc1ccccc1)C2 7.42%
COc1ccccc1OCC(O)CO (centres undefined) 6.25% and -8%
CCCCCc1ccc(-c2cn(Cc3ccc(C)cc3)nn2)cc1 -11.6%
NC[C@@H]1O[C@H](O[C@H]2[C@@H](O)[C@H](O[C@@H]3[C@@H](O)[C@H](N)C[C@H](N)[C@H]3O[C@H]3O[C@H](CO)[C@@H](O)[C@H](O)[C@H]3N)O[C@@H]2CO)[C@H](N)[C@@H](O)[C@@H]1O 9.73%
CN1C(=O)CC(CC(=O)N2CCCCC2CCO)(c2cccc(F)c2)C1=O (centres undefined) -14.1%
CC[C@]1(O)C[C@H]2CN(CCc3c([nH]c4ccccc34)[C@@](C(=O)OC)(c3cc4c(cc3OC)N(C=O)[C@H]3[C@@](O)(C(=O)OC)[C@H](OC(C)=O)[C@]5(CC)C=CCN6CC[C@]43[C@@H]65)C2)C1 -3.47%
O=c1c(-c2ccc(Cl)cc2)nc2cnc(N3CCOCC3)nc2n1CCc1ccccc1 -10.4%
COc1cc(C)c2c(c1C=O)Oc1c(c(C)c(O)c3c1C(O)OC3=O)OC2=O (centres undefined) -10.8% and -6.81%
CC1(COc2ccc(C[C@H]3SC(=O)NC3=O)cc2)CCCCC1 -43%
COc1ccccc1C1CN(CCNC(=O)c2ccccc2Cl)Cc2ccccc2O1 (centres undefined) 0.445%
N[C@H](Cc1cnc[nH]1)C(=O)O -7.95% and 9.17%
CNc1ncncc1-c1ccccc1C(F)(F)F -9.61%
CCCCCCCCCC(=O)NO -16.4% and -13.9%
COc1ncc2nc(CCc3ccccc3)c(=O)n(-c3ccccc3)c2n1 2.24%
Clc1cccc(C=NC=Nc2cccc(Cl)c2)c1 2.17%
COc1cc(C2c3cc4c(cc3C(O)[C@H]3COC(=O)C23)OCO4)cc(OC)c1OC (some centres undefined) -8.25% and -8.94%
Cc1cc(=O)[nH]c(=S)[nH]1 -2.9%
COc1ccc(-c2nc3cc(C)ccc3cc2CN(C(=O)c2ccco2)C2CC2)cc1OC -3.44%
O=C(c1cccc(F)c1)N1CCC[C@@]2(CCN(c3ccncc3)C2)C1 -12.2%
COC(=O)C1C(=O)C(C(=O)/C=C/c2ccco2)C(=O)CC1(C)C (centres undefined) 9.01%
CC(=O)[C@@]1(O)CC[C@H]2[C@@H]3C=C(Cl)C4=CC(=O)CC[C@]4(C)[C@H]3CC[C@@]21C -11.5%
N[C@H](Cc1ccc(O)cc1)C(=O)O -7.07%
CC1(C)OC2C(CO)OC(n3cnc4c(=O)[nH]c(N)nc43)C2O1 (centres undefined) -7.45%
Brc1ccc(CN2CC[C@H]3C=CCc4cccc(c43)C2)cc1 -38.4%
COc1ccccc1-c1ccnc(-n2ncc(C(=O)N3CCN(C4CCCC4)CC3)c2-c2ccco2)n1 9.92%
c1ccc(-c2cccc(N3CC[C@@]4(CCCNC4)C3)c2)cc1 -14.8%
CC(C)NC(=O)N1CC2(CCN(S(=O)(=O)c3ccccc3)CC2)C1 -6.99%
Cc1ccc(CN2CCCOCCS2(=O)=O)cc1 -2.32%
CC(=O)c1ccc(F)c(-c2cc(C)cc3c2OC(CNC(=O)C2CCCCN2C)C3)c1 (centres undefined) -14%
CS(=O)(=O)Nc1cccc(-c2ccc3ncnc(NC4CC4)c3c2)c1 -17.4%
NC(=O)c1ccc2[nH]ccc2c1 -21.4%
COc1cc(=O)n2c(c1C(=O)NCc1ccco1)CCN(Cc1cccc(C(F)(F)F)c1)CC2 -19.2%
CSc1nnc(CNC(=O)/C=C/c2ccccc2Cl)n1-c1ccc(F)cc1 -0.0505%
COc1ccc(OC)c(CN2CCCC(n3cc(C(=O)N4CCCCC4)nn3)C2)c1 (centres undefined) 3.07%
Oc1c(Cl)cc(Cl)c(Cl)c1Cc1c(O)c(Cl)cc(Cl)c1Cl 1.98% and 0.587%
Cc1c(N(C)C)c(=O)n(-c2ccccc2)n1C -6.66%
CN(C)C(=O)c1ccc(-c2cncnc2Nc2ccccc2)cc1 -6.77%
O=C(O)C(S)[C@@H](S)C(=O)O (some centres undefined) -10.2%
CCCCC[C@H](O)/C=C/C1=C(CCCCCCC(=O)O)C(=O)CC1 -0.903%
COc1cccc(-c2nccc(NC3CCNCC3)n2)c1 0.711%
O=C(O)C[C@H]1c2cc(F)ccc2S(=O)(=O)N1C1CCCCC1 -6.76%
CCCc1c(-c2ccc(O)cc2)nn(-c2ccc(O)cc2)c1-c1ccc(O)cc1 -18.4% and 14.5%
COCCn1c(=O)c(-c2ccc(Cl)cc2)nc2cnc(OCc3ccccc3)nc21 -16.7%
COc1ccc(/C=C/C(=O)Nc2ccccc2C(=O)O)cc1OC -15.3% and -16.7%
CCN(CC)CCNC(=O)c1c(C)[nH]c(/C=C2\C(=O)Nc3ccc(F)cc32)c1C -14.1%
COC(=O)[C@@H]1[C@@H]2C[C@H]3c4[nH]c5ccccc5c4CCN3C[C@@H]2CC[C@@H]1O -22.5% and -4.85%
COc1cccc(Cn2c(=O)cnc3cnc(Nc4cccc(OC)c4)nc32)c1 16.5%
CSc1ncnc2c1ncn2C1OC(CO)C(O)C1O (centres undefined) -11.2%
CC(C)(C)OC(=O)NS(=O)(=O)NOCc1ccccc1 -9.26%
COCC(=O)N1CCC[C@@]2(CCN(C(=O)Nc3cccc(C#N)c3)C2)C1 -11.3%
